Data taken from the supplement of paper PMC12632987.
Over roughly 1,800 sequences, “median log2 fold change of GCK-ALFA target abundance (FLAG IP / Myc IP barcode read proportion)” has its median near 0.14; the lowest 2% begin near -0.84. Some of the results follow.

B1: traf2_out_18_3_1910 (protein)
chain: SEEERKEISEKIDEIVDEATARARAALDRLAAEHPAVAARAAALRADLDAGAGPFGILDALAELFREAGDEAAAAELEEFLREKRKELQELVDKYEELLK
B2: traf2_out_8_152_2545 (protein)
chain: ELEKLKEEVRKEVTELFDEALEASADNPELKAQVETARDYVLKLIDEGKVEEALNVAIANFSYLSLLAKERGDEELAAFFEELRKKLIELRKKYSEALEK
B3: traf2_out_14_149_1244 (protein)
chain: SAEAKLYKAAAELSKKVAEALEEVLKLLDAGKVEEAKKLLEETIKELKEEGKKAGITISEIFVLEHILELLDTDVEKAKAAAKEALERAKSAAEAFESLA
B4: traf2_out_18_167_1847 (protein)
chain: EEEIRKRREELSDRLVELSEVKRAARLALQALETDPSKVPAALAALREKAASIPELQPLVDAAEAALAAGDREGLRATLEKLIEKAQKLMNEVLKEYEAL
B5: traf2_out_17_162_1540 (protein)
chain: SETEEELRRLREELEELEEELRRLEEISKNLETLSKEELTDLLVEASELRRRALELAERLRRLEEETGSEEARRLRERAEEIAERLQRIANEIYKELEKK
B6: traf2_out_20_38_2019 (protein)
chain: SEEEKEKEKLEKLIEHAQAAYDAAEAWIAALRAAGKSVAEIAAAAKERVRALLTAHGLEEEAEELVADIDRVLDSPDAERLIVRILARAETLVFQKELQK
B7: traf2_out_6_3_2516 (protein)
chain: MEESIRKDAETVLENMGITTAEQLKRLVKAEVNAVKKLVSRKDVDEADLAGAESVLNLTRAMVEVAYEKLPDLTEEQKKEMLALIKEAEELVKKKRKELE
B8: traf2_out_11_169_857 (protein)
chain: KEEEKNRKIIEKALELNDEAKEKLKEHALALAKEAGLDVAEVEAIFEKNKNKSLSAVAAALIEWFKSQGKEDEAQAVLEKYEELKEEINKKMTEFLKELE
B9: traf2_out_11_79_930 (protein)
chain: EELLEELRRLLEEAKRKLEELIKKKEAGEITEEEWKKTLEEIDRLLQRAAQLALELGLSDVLVLISEARRHVLLAYSGDLEALKEALKKVEEALELLEKE
B10: traf2_out_20_3_2260 (protein)
chain: EELKKEAKEYLEKAKKLLEEIKPHLPPEDAARAEELLKKAEEAFEKDVSDALVYVSELRRLARARAERARAAGDEELAAKLEELADVLNKLANLLYKIEQ
B11: traf2_out_20_3_2111 (protein)
chain: SELEKELEKKLEEALAKLKEAAKLADPETAKVLKELAKKLEESKSLSPSDRLVVVSEIKRQVLLLQQQAEAAGKTELAKVLAEAADALNKAAGLLMKIIE
B12: traf2_out_11_155_727 (protein)
chain: EARRQAQNEIVDYNLAIGDKLLAVVEAVIARVAERDPAVAAELRAVVARHLRYSATSAARAAIDLLRARGLEAEAAELEAALEAAQKEASKKNKEIEAKL
B13: traf2_out_6_3_2512 (protein)
chain: EEEEERKRNEEALEEAAEMSLETIKIAAETTLKELEKAVEDPNATETDFLAYKSSLNLLLEIMKKHAEKHPEEKEEAEKFIEEMKKKLEELEKEWKKKRA
B14: traf2_out_6_156_2423 (protein)
chain: MKEEILKEAKKKIKEEIKKLAKASEEKKIQYISKIAGAVYRALQRLREAGASVEELKEAVKELKKVAKEEAEKEGLDEDTINLLLGSINAVGEVALREAK
B15: traf2_out_16_104_1407 (protein)
chain: SAATTAAYQAIIAELEAIAEELGRLANKIYKAMETASEEEKKKLSEALVEASELRREALQAAEAARQALATGGDLAAAQAALAKLKAKAKEVKEKAEKLF
B16: traf2_out_5_189_2321 (protein)
chain: SSKEKENEELRERARRLSREASELFNRLIEEGKSYEEMIDELLARVAELPIDDAALFTGIAYSILEGEALAKNDEELLKAAREFRARARALIAARRAAAA
B17: traf2_out_13_95_1070 (protein)
chain: TRELARRINELADRAEERALALLAAAQAELADDPEAVAVLDEAARLAETRGIRAAIALLREAQAAHPEHREAFDALIAELEEIRRELGREVAKLIKEAEE
B18: traf2_out_20_38_2025 (protein)
chain: SEEEEEEKKLEELIKVANDAYDAATAEIAALKAEGKSVEEIAEWAKEKIKEILDKVGLEEEKEELIADVDRVLDSPDALTLIARILARAVAKAKQKELQE
B19: traf2_out_20_3_2141 (protein)
chain: EELEKKLEEELKKAIELLKEAAKLADEETAKKLEKLIKELKESKNLSYEDRLVKLSEIRREVRLLAEEARKAGKEELAKLLEEAAEELNEAMNIVMKIIE

Molecular target: T1, TRAF2, Q12933
T1 chain: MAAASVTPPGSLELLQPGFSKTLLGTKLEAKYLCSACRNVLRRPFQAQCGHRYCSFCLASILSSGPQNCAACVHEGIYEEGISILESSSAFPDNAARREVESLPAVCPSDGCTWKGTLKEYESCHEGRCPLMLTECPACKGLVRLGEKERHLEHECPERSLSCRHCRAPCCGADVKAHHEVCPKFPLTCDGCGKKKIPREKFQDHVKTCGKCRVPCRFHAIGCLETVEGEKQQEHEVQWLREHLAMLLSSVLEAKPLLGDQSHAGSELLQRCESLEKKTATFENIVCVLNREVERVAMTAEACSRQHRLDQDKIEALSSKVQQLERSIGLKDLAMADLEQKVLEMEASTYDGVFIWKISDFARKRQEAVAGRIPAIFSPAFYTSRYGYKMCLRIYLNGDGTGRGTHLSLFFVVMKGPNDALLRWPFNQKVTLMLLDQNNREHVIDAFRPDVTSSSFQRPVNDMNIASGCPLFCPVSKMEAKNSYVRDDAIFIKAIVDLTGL
Test: median log2 fold change of GCK-ALFA target abundance (FLAG IP / Myc IP barcode read proportion) (log2 ratio); each designed protein is fused to an ALFA-tag nanobody in HEK293 cells to bring the named protein to FLAG-tagged glucokinase (GCK); Myc marks an untargeted standard; higher = target protein stabilised (more abundant)
Settings: target protein: 3xFLAG-MCP-GCK-ALFA reporter; HEK293 landing pad (RPLP)
Method in brief: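 Binders fused to an ALFA nanobody were recombined as a library into HEK293 landing-pad cells, which were induced with 2 μg mL^−1 doxycycline and then transfected to express a FLAG-tagged target and a Myc-tagged standard. After 48 h, circular RNA barcodes recovered by anti-FLAG and anti-Myc immunoprecipitation of lysates were reverse transcribed, amplified and sequenced. Each binder's target abundance is the median log2 ratio of FLAG to Myc barcode read proportions, from barcodes present at ≥10^−7 in both replicates, binders carrying ≥3 barcodes per replicate, a 10^−6 pseudocount and pooled replicates.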

Row | Binder | median log2 fold change
1 | B1 | 0.203
2 | B2 | 0.216
3 | B3 | 0.249
4 | B4 | 0.224
5 | B5 | 0.402
6 | B6 | 0.0921
7 | B7 | -0.56
8 | B8 | -0.193
9 | B9 | 0.072
10 | B10 | 0.243
11 | B11 | 0.33
12 | B12 | 0.0983
13 | B13 | 0.417
14 | B14 | 0.0521
15 | B15 | -0.265
16 | B16 | 0.176
17 | B17 | -0.334
18 | B18 | -0.841
19 | B19 | 0.362
